Test results from PubChem BioAssay (NCATS).
Inconclusive results, whose numbers are uncertain, are shown with a selection of clear calls. For some assays here: No potency is given beside an inconclusive call; the fits are too rough. The source made the active and inactive calls. Calls come from the whole dose curve; as a rule, active = well fitted curve in the direction sought with a large enough effect; inconclusive = small, poorly fitted or top-dose-only effect, or another doubt; inactive = no such curve, though single readings can be large; an effect the other way counts as inactive or inconclusive.

What was measured:
[1] = test system: Nanoluciferase (engineered Oplophorus gracilirostris luciferase); experiment: Primary Nanoluciferase (NLuc) qHTS assay for identification of artifact compounds. (AID 1845222)
Summary of the method: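 Diluted conditioned medium from NLuc-expressing S16 cells treated with compounds for 15 min at room temperature, then Nano-Glo substrate added; luminescence read after 5 min. Percent inhibition versus no-enzyme and DMSO controls fitted to 4-parameter Hill equation.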

[2] = qHTS of pediatric cancer cell lines to identify multiple opportunities for drug repurposing: Confirmatory screen for BT-12 cells (AID 1347112); note: nearly all actives have a fitted effect of over 55% in size
Summary of the method: (§1)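 Viability after 48 h compound treatment at 37C, 500-1,000 cells/well, read as ATP luminescence with CellTiter-Glo. Primary screens used 11-point (MIPE, 0.78 nM-46 µM) or 8-point (NPC, 0.59 nM-46 µM) final concentrations; follow-up screens used 11-point dilutions.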

[3] = qHTS of pediatric cancer cell lines to identify multiple opportunities for drug repurposing: Confirmatory screen for SJ-GBM2 cells (AID 1347116); note: nearly all actives have a fitted effect of over 60% in size
Summary of the method: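 Viability measured as metabolically active cells via CellTiter-Glo luminescence following 48 hours of compound exposure, 11-point dilutions in confirmatory testing. 500-1,000 cells/well plated 5 hours before dosing; controls were DMSO and 2.3 µM bortezomib.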

[4] = qHTS of pediatric cancer cell lines to identify multiple opportunities for drug repurposing: Confirmatory screen for Rh18 cells (AID 1347125); note: nearly all actives have a fitted effect of over 55% in size
Summary of the method: as §1

[5] = qHTS of pediatric cancer cell lines to identify multiple opportunities for drug repurposing: Confirmatory screen for Saos-2 cells (AID 1347127); note: nearly all actives have a fitted effect of over 60% in size
Summary of the method: as §1

[6] = test system: Zika virus NS2B-NS3 protease; experiment: Primary screen GU AMC qHTS for Zika virus inhibitors (AID 1347154); note: nearly all actives have a fitted effect of over 70% in size
Summary of the method: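 Unlinked Zika NS2B hydrophilic domain–NS3 protease complex at 25 nM in 10 mM Tris-HCl pH 8.0, 0.01% Tween 20, with an AMC peptide substrate. Fluorescence change (340/450 nm) over 15 min at room temperature, normalized to controls, fitted to 4-parameter Hill.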

[7] = Quantitative High-Throughput drug screen in 47 multiple myeloma cell lines against the NCATS MIPE library collection: FR4_PLB cell viability assay (AID 1918924; note: nearly all actives have a fitted effect of over 35% in size)
Summary of the method: (§2)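 Myeloma cell lines, 500 cells per well, exposed to MIPE 4.0 library compounds for 48 h at 37C, 5% CO2. Viability from ATP by CellTiter-Glo luminescence; normalised to DMSO (100%) and media-only (0%) wells.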

[8] = Quantitative High-Throughput drug screen in 47 multiple myeloma cell lines against the NCATS MIPE library collection: KMS28PE_JCRB cell viability assay (AID 1918983); note: nearly all actives have a fitted effect of over 35% in size
Summary of the method: (§3)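 500 cells/well per myeloma line exposed to pinned MIPE 4.0 compounds for 48 h at 37 °C, 5% CO2. Viability read as ATP by CellTiter-Glo luminescence, normalised to DMSO-only (100%) and media-only (0%) wells.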

[9] = Quantitative High-Throughput drug screen in 47 multiple myeloma cell lines against the NCATS MIPE library collection: OPM2_DSMZ cell viability assay (AID 1919872); note: nearly all actives have a fitted effect of over 30% in size
Summary of the method: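 Inhibition of cell viability is measured here. Each line was plated at 500 cells per well, treated with MIPE 4.0 drugs, kept 48 hours at 37C, then assayed for ATP content by CellTiter-Glo luminescence.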

[10] = Quantitative High-Throughput drug screen in 47 multiple myeloma cell lines against the NCATS MIPE library collection: KMS11_JCRBsus cell viability assay (AID 1919873); note: nearly all actives have a fitted effect of over 50% in size
Summary of the method: as §3

[11] = biological target: Glutathione peroxidase 1 (Homo sapiens) (UniProt P07203); experiment: Primary qHTS Assay for Inhibitors of Recombinant Selenoprotein Glutathione Peroxidase 1 (GPX1) (AID 1845191); settings: activity, negative = inhibition: at 48.8 µM (top of the series); note: nearly all actives have a fitted effect of over 65% in size
Summary of the method: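 GR-coupled assay: compounds preincubated 30 min at room temperature with GPX1, then reaction started with CHP; final 10 nM GPX1, 1 mM GSH, 0.5 mM CHP, 0.5 mM NADPH, 100 nM GR, 0.01% BSA, pH 7.5 Tris buffer. NADPH fluorescence (340/450 nm) read at 0 and 15 min.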

[12] = qHTS of pediatric cancer cell lines to identify multiple opportunities for drug repurposing: Primary screen for A673 cells (AID 1347092); settings: A673 Ewing sarcoma viability, CellTiter-Glo ATP luminescence, 48 h; series mostly up to 46 µM; note: nearly all actives have a fitted effect of over 45% in size
Summary of the method: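 Luminescence from CellTiter-Glo, taken after 15 min at room temperature, served as the proxy for metabolically active cells following 48 h treatment. Both potency and efficacy were taken from curves fitted to the titration data.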

[13] = Primary qHTS for small molecule stabilizers of the endoplasmic reticulum resident proteome: Secreted ER Calcium Modulated Protein (SERCaMP) assay (AID 1508630); settings: SH-SY5Y GLuc-SERCaMP (Gaussia luciferase released on ER calcium loss) secretion, thapsigargin, luminescence; series mostly up to 38.4 µM
Summary of the method: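 GLuc-SERCaMP-expressing SH-SY5Y cells, pretreated 16 h with compound, are challenged with thapsigargin to empty ER calcium stores; after 4 h, coelenterazine is added directly to the medium and luminescence is imaged.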

[14] = Quantitative High-Throughput drug screen in 47 multiple myeloma cell lines against the NCATS MIPE library collection: ARP1_JJKsccF8 cell viability assay (AID 1918928; note: nearly all actives have a fitted effect of over 40% in size)
Summary of the method: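 Luminescence from CellTiter-Glo, taken after 5 min at room temperature, reports cellular ATP as viability. Cells (500 per well) had been treated 48 h at 37 °C with MIPE 4.0 compounds, scaled between DMSO and medium-only controls.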

[15] = Quantitative High-Throughput drug screen in 47 multiple myeloma cell lines against the NCATS MIPE library collection: KMS26_JCRB cell viability assay (AID 1918975); note: nearly all actives have a fitted effect of over 45% in size
Summary of the method: as §2

[16] = Quantitative High-Throughput drug screen in 47 multiple myeloma cell lines against the NCATS MIPE library collection: XG6_PLB cell viability assay (AID 1919865); settings: XG6 myeloma viability, CellTiter-Glo ATP luminescence, 48 h; viability (% of control): at 45.8 µM (top of the series); note: nearly all actives have a fitted effect of over 40% in size
Summary of the method: as §3

[17] = Quantitative High-Throughput drug screen in 47 multiple myeloma cell lines against the NCATS MIPE library collection: INA6_PLB cell viability assay (AID 1918965; note: nearly all actives have a fitted effect of over 55% in size); settings: INA6 myeloma viability, CellTiter-Glo ATP luminescence, 48 h; viability (% of control): at 45.8 µM (top of the series)
Summary of the method: as §2

WaGa = experiment: qHTS assay to identify novel small-molecules to repurpose for Merkel cell carcinoma treatment (AID 1296009); settings: MCC and control cell lines, CellTiter-Glo viability, 72 h; series mostly up to 46 µM; note: nearly all actives have a fitted effect of over 60% in size
Summary of the method: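 Cells were treated for 72 hr at 37 degree celsius with compounds in 8- or 11-point dose response. Viability was read by CellTiter-Glo luminescence, normalized to no-cell (cytotoxicity) and DMSO controls.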
Potency is the fitted concentration of half-maximal effect; tags give direction and shape of the fitted curve.

Chain of UniProt P07203 (P07203 whole entry, looked up): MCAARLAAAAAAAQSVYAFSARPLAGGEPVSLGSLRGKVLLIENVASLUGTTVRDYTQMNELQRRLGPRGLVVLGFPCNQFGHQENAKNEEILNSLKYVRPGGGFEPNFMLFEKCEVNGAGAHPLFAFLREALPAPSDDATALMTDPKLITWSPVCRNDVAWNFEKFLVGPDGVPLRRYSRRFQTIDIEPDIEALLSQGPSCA

Structure (SMILES): CCN(CCCOc1ccc2c(Nc3cc(CC(=O)Nc4cccc(F)c4)[nH]n3)ncnc2c1)CCOP(=O)(O)O
- Potency [1]: inconclusive [inhibitor, partial curve, poor fit]

Structure (SMILES): CC(C)c1cc(-c2n[nH]c(=O)n2-c2ccc3c(ccn3C)c2)c(O)cc1O
- Potency [2]: inconclusive [rising, full curve, poor fit]
- Potency [3]: inactive
- Potency [4]: inconclusive [rising, full curve, poor fit]
- Potency [5]: inconclusive [rising, full curve]
- Potency [6]: inconclusive [inhibitor, single point]
- Potency [7]: inconclusive [cytotoxic, full curve]
- Potency [8]: active: 0.0132 µM
- Potency [9]: active: 0.0418 µM
- Potency [10]: active: 0.0166 µM

Structure (SMILES): Cc1cc(-c2nc3cc(F)ccc3s2)ccc1NC(=O)[C@@H](N)CCCCN
- Potency [11]: inconclusive [inhibitor, partial curve]

Structure (SMILES): Oc1ccc(Cl)cc1Cc1cc(Cl)ccc1O
- Potency [12]: inconclusive [cytotoxic, single point]
- Potency [6]: inconclusive [inhibitor, partial curve]
- Potency [13]: inconclusive [inhibitor, full curve, poor fit]

Structure (SMILES): COC(=O)C1=C(C)NC(C)=C(C(=O)O[C@@H]2CCCN(Cc3ccccc3)C2)[C@@H]1c1cccc([N+](=O)[O-])c1
- Potency [13]: inconclusive [inhibitor, single point]
- Potency [1]: inconclusive [inhibitor, partial curve]

Structure (SMILES): CC(=O)[C@H]1CC[C@H]2[C@@H]3CCC4=CC(=O)CC[C@]4(C)[C@H]3CC[C@]12C
- Potency [2]: inconclusive [cytotoxic, full curve, poor fit]
- Potency [3]: inconclusive [cytotoxic, single point]
- Potency [4]: active: 23.3 µM
- Potency [5]: inconclusive [cytotoxic, partial curve, poor fit]
- Potency [11]: inactive
- Potency [7]: inconclusive [cytotoxic, single point]
- Potency [14]: inconclusive [cytotoxic, single point]
- Potency [15]: inconclusive [cytotoxic, single point]
- Potency [16]: inconclusive [cytotoxic, partial curve]
- Potency [9]: inconclusive [rising, full curve, poor fit]

Structure (SMILES): COc1cc(C2c3cc4c(c(O)c3CC(CO)C2C(=O)O)OCO4)cc(OC)c1O (centres undefined)
- Potency [11]: inconclusive [inhibitor, partial curve]

Structure (SMILES): O=C(Nc1ccc(S(=O)(=O)C(F)(F)F)cc1)C1=CCN(c2ncccc2C(F)(F)F)CC1
- Potency [1]: inactive

Structure (SMILES): COc1cc(CCc2cc(NC(=O)c3ccc(N4C[C@@H](C)N[C@@H](C)C4)cc3)n[nH]2)cc(OC)c1
- Potency [1]: inconclusive [inhibitor, partial curve]
- Potency [14]: active: 18.7 µM

Structure (SMILES): Cc1ccc(NC(=O)Nc2cc(C(F)(F)F)ccc2F)cc1Nc1ccc2c(c1)NC(=O)/C2=C\c1ccc[nH]1
- Potency [1]: inconclusive [inhibitor, partial curve]

Structure (SMILES): C=C1[C@@H](C2=CC(=O)OC2)CC[C@@]2(O)[C@@H]1CC1[C@H]2CC[C@@H]2C[C@@H](O[C@H]3O[C@@H](C)[C@@H](O[C@@H]4O[C@H](CO[C@@H]5O[C@H](CO)[C@@H](O)[C@H](O)[C@H]5O)[C@@H](O)[C@H](O)[C@H]4O)[C@H](OC)[C@H]3O)CC[C@]12C (some centres undefined)
- Potency [11]: inactive

Structure (SMILES): COc1cc(C)c(Sc2cnc(NC(=O)c3ccc(CNC(C)C(C)C)cc3)s2)cc1C(=O)N1CCN(C(C)=O)CC1 (centres undefined)
- Potency [1]: inconclusive [inhibitor, partial curve, poor fit]
- Potency [9]: active: 20.9 µM
- Potency [10]: active: 8.33 µM

Structure (SMILES): Cc1c[nH]c2ncnc(N3CCC(CN)(C(=O)Nc4cccc(OC(=O)N(C)C)c4)CC3)c12
- Potency [11]: inconclusive [inhibitor, partial curve, poor fit]

Structure (SMILES): C[C@@]12C(=O)OC(=O)[C@@]1(C)C1CCC2O1
- Potency [2]: active: 8.27 µM
- Potency [4]: active: 2.93 µM
- Potency [7]: active: 1.48 µM
- Potency [17]: active: 2.64 µM
- Potency [15]: active: 2.09 µM
- Potency [16]: active: 4.18 µM
- Potency [9]: active: 0.662 µM
- Potency (WaGa): active: 2.96 µM
